Sequences with one replicate were seen in a single cluster, so their values are uncertain.
system: ATP; assay: switch fluorescence ratio, 500 uM ATP over buffer (Cy3 cluster intensity, sum of 5 cycles each) (fold (ratio)); higher = stronger signal-on switching upon ATP binding; sequences stand for … in TCGTCGGCAGCGTCAGATGTGTATAAGAGACAGTTTTTTTTTTTTTTTTTTTTTTTTT…TC; settings: aptamer strand: ATP DNA aptamer (quencher-CACCTGGGGGAGTATTGCGGAGGAAGG + anchor), 100 nM annealed; ATP concentration: 500 uM; one replicate
Outline: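 Imaging in selection buffer was followed by imaging after 15 min with 500 uM ATP at 22 °C, for Cy3-labelled switching-strand clusters annealed to 100 nM quencher-labelled ATP aptamer on a modified Illumina MiSeq flow-cell. Five of these buffer/ATP cycles ran, separated by NaOH stripping and re-annealing. The fluorescence ratio per cluster is summed target-cycle over summed buffer-cycle Cy3 intensity, averaged per switch-domain sequence; clusters outside 100-1000 RFU were removed.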
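Note: ATP exposure 15 min at 22 °C before imaging.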

Sequence	switch fluorescence ratio
ACTTTGGCTG	0.993
ACTTTTTTGT	0.998
AGAAAAGAAT	1.06
AGAAAAGCGA	1.01
AGAAAGTGAG	1.05
AGAACCCAAT	1.01
AGAACCGGAA	1.19
AGAACCTTCA	2.71
AGAACGGGCG	0.979
AGAACGGGT	1
AGAACGTATT	0.998
AGAACTACTT	1.1
AGAAGAATAT	0.997
AGAAGATACG	1.05
AGAAGATATA	1.03
AGAAGCAGAT	0.999
AGAAGTACTT	1.01
AGAAGTGAAG	1.03
AGAATCAACA	1.01
AGAATCCTTT	1.01
AGAATCGGTA	1.03
AGAATCTACC	1.07
AGAATGACGC	1.1
AGAATGTCGG	0.986
AGAATGTTAC	1.06
AGAATTCGTG	1.03

Sequence	switch fluorescence ratio
AGACACAGG	1.13
AGACACGACT	1.08
AGACACGCA	1.21
AGACACTCT	1.04
AGACAGCAAT	2.73
AGACATCAAC	1.07
AGACATGTAG	0.973
AGACCATGTC	1.01
AGACCCAGTT	0.986
AGACCTAGCT	1.04
AGACGCAACT	1.69
AGACGCTGG	0.924
AGACGGAGCT	1.33
AGACGGGATC	1.54
AGACGTACGA	1.4
AGACGTCTGT	0.993
AGACGTGCGG	0.972
AGACGTGGGT	1.03
AGACTAATGG	1.04
AGACTAATTG	0.989
AGACTACACA	1.2
AGACTACAGC	0.985
AGACTATGAT	1.01
AGACTCAAG	0.987
AGACTCATTT	1
AGACTCCCGT	1.08

Sequence	switch fluorescence ratio
AGACTGCGGT	1.01
AGACTGGGCA	1.01
AGAGAACGAT	1.02
AGAGAAGAGT	0.998
AGAGACGGT	1
AGAGAGCAGG	1.11
AGAGAGTTG	1.01
AGAGATCACC	1.02
AGAGATGGGT	1.02
AGAGATTG	0.948
AGAGCAGTGG	1.05
AGAGCCCAG	1.01
AGAGCCGTGG	0.924
AGAGCGATTG	1.02
AGAGCTCTAA	0.993
AGAGGAGTTT	0.994
AGAGGATGCC	1.11
AGAGGGACGG	0.982
AGAGGGGATA	0.968
AGAGGGGTAG	1
AGAGGTGGTG	0.931
AGAGTACACT	1
AGAGTAGACA	1.05
AGAGTATAA	0.989
AGAGTGTTCA	1.01
AGAGTTAC	0.986

Sequence	switch fluorescence ratio
AGAGTTGGGG	0.985
AGAGTTTGTT	0.965
AGAGTTTTA	0.978
AGATAAAGAA	1.01
AGATACAACT	0.997
AGATACTAGA	1.01
AGATACTCAG	1.07
AGATACTTGG	1
AGATAGTGAC	1
AGATAGTTAA	1.05
AGATATCTCT	1
AGATATGATA	0.996
AGATCAGCGG	0.992
AGATCAGTCC	1.04
AGATCAGTCT	1
AGATCCGGGC	1.02
AGATCGACTG	0.989
AGATCGCGGC	1.04
AGATCGGATT	1.01
AGATCGGGGT	0.95
AGATCGTGCA	0.955
AGATCTGAGA	1.07
AGATCTGTGG	1.01
